IC50 is the fitted dose that halves viability relative to control wells, and lower means more sensitive; a limit (>, <) means that the fit lies beyond the doses tested. The AUC spans the tested range (256-fold, ending at the top dose) of the same fit; it is 1 without any effect and falls as sensitivity rises. For some of these results: The top dose, if marked as inferred, was calculated from the reported fits. For some of these results: Where an entry number is given, a second screen of the drug exists; the two often differ.
What was measured:
Assay in all cases: Viability of human cancer cell lines after 72 h of drug (GDSC screen)
GDC0941 = compound: CS(=O)(=O)N1CCN(Cc2cc3nc(-c4cccc5[nH]ncc45)nc(N4CCOCC4)c3s2)CC1 [GDC0941]; details: top dose 4 µM; screen: GDSC drug entry 1527; top dose inferred
Procedure: (§1)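 Human cancer cell lines in 384-well plates, medium with 10% serum, drug for 72 h over a 256-fold dose range (nine 2-fold or five 4-fold steps up to the top dose). Adherent lines were fixed and stained with the nucleic acid dye Syto60, suspension lines read with resazurin; signal relative to control wells, capped at 0 and 100%. One two-parameter sigmoid per drug and line, fitted in a mixed model over all curves with the slope shared within a line.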

CEP-701 = compound: C[C@]12O[C@H](C[C@]1(O)CO)n1c3ccccc3c3c4c(c5c6ccccc6n2c5c31)CNC4=O [CEP-701]; details: top dose 2 µM; top dose inferred
Procedure: as §1

AR-42 = compound: CC(C)[C@H](C(=O)Nc1ccc(C(=O)NO)cc1)c1ccccc1 [AR-42]; details: top dose 5.12 µM; top dose inferred
Procedure: as §1

SB 216763 = compound: Cn1cc(C2=C(c3ccc(Cl)cc3Cl)C(=O)NC2=O)c2ccccc21 [SB 216763]; details: top dose 10 µM; top dose inferred
Procedure: as §1

Pazopanib = compound: Cc1ccc(Nc2nccc(N(C)c3ccc4c(C)n(C)nc4c3)n2)cc1S(N)(=O)=O [Pazopanib]; details: top dose 8 µM
Procedure: as §1

MG-132 = compound: CC(C)C[C@@H](C=O)NC(=O)[C@H](CC(C)C)NC(=O)[C@H](CC(C)C)NC(=O)OCc1ccccc1 [MG-132]; details: top dose 1 µM
Procedure: as §1

Cell Line | AUC (GDC0941) | IC50 (GDC0941) | AUC (CEP-701) | IC50 (CEP-701) | AUC (AR-42) | IC50 (AR-42) | AUC (SB 216763) | IC50 (SB 216763) | AUC (Pazopanib) | IC50 (Pazopanib) | AUC (MG-132) | IC50 (MG-132)
NCI-H446 (small cell lung carcinoma, semi-adherent) | 0.501 | 252 nM | 0.748 | 686 nM | 0.368 | 134 nM | 0.985 | > 10 µM | 0.97 | > 8 µM | 0.939 | > 1000 nM
KY821 (leukaemia, suspension) | 0.886 | 3420 nM | 0.626 | 264 nM | 0.565 | 470 nM | 0.988 | > 10 µM | 0.98 | > 8 µM | 0.992 | > 1000 nM
MMAC-SF (melanoma, adherent) | 0.719 | 1070 nM | 0.414 |  | 0.822 | 3150 nM | 0.987 | > 10 µM | 0.979 | > 8 µM | 0.532 | 76.8 nM
NCI-H1666 (lung adenocarcinoma, semi-adherent) | 0.565 | 384 nM | 0.857 |  | 0.649 | 863 nM | 0.986 | > 10 µM | 0.987 | > 8 µM | 0.958 | > 1000 nM
LU-65 (large cell lung carcinoma, suspension) | 0.951 | > 4000 nM | 0.987 | > 2000 nM | 0.66 | 968 nM | 0.987 | > 10 µM | 0.98 | > 8 µM | 0.889 | > 1000 nM
MC116 (B-cell lymphoma, suspension) | 0.758 | 1040 nM | 0.728 | 443 nM | 0.383 | 167 nM | 0.999 | > 10 µM | 0.997 | > 8 µM | 0.92 | 674 nM
LB2518-MEL (melanoma, adherent) | 0.892 | > 4000 nM | 0.646 | 324 nM | 0.599 | 608 nM | 0.982 | > 10 µM | 0.935 | > 8 µM | 0.416 | 36.5 nM
SW962 (urogenital system, adherent) | 0.513 | 273 nM | 0.534 | 158 nM | 0.655 | 965 nM | 0.98 | > 10 µM | 0.888 | > 8 µM | 0.889 | > 1000 nM
NCI-H1648 (lung adenocarcinoma, adherent) | 0.612 | 518 nM | 0.944 | > 2000 nM | 0.477 | 276 nM | 0.961 | > 10 µM | 0.978 | > 8 µM | 0.893 | > 1000 nM
ROS-50 (B-cell leukaemia, suspension) | 0.983 | > 4000 nM | 0.894 | > 2000 nM | 0.539 | 420 nM | 0.973 | > 10 µM | 0.983 | > 8 µM | 0.915 | > 1000 nM
HSC-39 (stomach, suspension) | 0.565 | 367 nM | 0.361 | 54.7 nM | 0.647 | 765 nM | 0.958 | > 10 µM | 0.891 | 7.03 µM | 0.906 | > 1000 nM
